# Measurements as given in the supplement of paper PMC8728848.
# Some of the results follow.
# B1: F17fG (Escherichia coli), Q9RH91 (protein)
# chain: MTNFYKVFLAVFILVCCNISHAAVSFIGSTENDVGPSQGSYSSTHAMDNLPFVYNTGHNIGYQNANVWRISGGFCVGLDGKVDLPVVGSLDGQSIYGLTEEVGLLIWMGDTNYSRGTAMSGNSWENVFSGWCVGNYVSTQGLSVHVRPVILKRNSSAQYSVQKTSIGSIRMRPYNGSSAGSVQTTVNFSLNPFTLNDTVTSCRLLTPSAVNVSLAAISAGQLPSSGDEVVAGTTSLKLQCDAGVTVWATLTDATTPSNRSDILTLTGASTATGVGLRIYKNTDSTPLKFGPDSPVKGNENQWQLSTGTETSPSVRLYVKYVNTGEGINPGTVNGISTFTFSYQ
# Columns and labels:
# Assay in all cases: glycan array binding signal (z-score within array); higher = stronger binding
# Conditions in all cases: glycan notation: IUPAC condensed, linker removed
# Fuc(a1-2)Gal = target: Fuc(a1-2)Gal
# Method in brief: (§1)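 The binding signal is a Z-score computed within each array. Data were drawn from 3228 arrays in the Consortium for Functional Glycomics database, restricted to those with a known protein sequence. Scores were averaged over arrays of the same protein sequence at different concentrations or buffers, and over linkers, and negative values can be taken as non-binding.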
# Fuc(a1-2)Gal(b1-3)GalNAc = target: Fuc(a1-2)Gal(b1-3)GalNAc
# Method in brief: as §1
# [1] = target: Fuc(a1-2)Gal(b1-3)GalNAc(b1-3)Gal
# Method in brief: as §1
# [2] = target: Fuc(a1-2)Gal(b1-3)GalNAc(b1-3)Gal(a1-4)Gal(b1-4)Glc
# Method in brief: as §1
# [3] = target: Fuc(a1-2)Gal(b1-3)GalNAc(b1-4)[Neu5Ac(a2-3)]Gal(b1-4)Glc
# Method in brief: as §1
# Fuc(a1-2)Gal(b1-3)GlcNAc = target: Fuc(a1-2)Gal(b1-3)GlcNAc
# Method in brief: as §1
# [4] = target: Fuc(a1-2)Gal(b1-3)GlcNAc(b1-3)Gal(b1-4)Glc
# Method in brief: as §1
# [5] = target: Fuc(a1-2)Gal(b1-3)[Fuc(a1-4)]GlcNAc
# Method in brief: as §1
# Fuc(a1-2)Gal(b1-4)Glc = target: Fuc(a1-2)Gal(b1-4)Glc
# Method in brief: as §1
# Fuc(a1-2)Gal(b1-4)GlcNAc = target: Fuc(a1-2)Gal(b1-4)GlcNAc
# Method in brief: as §1
# [6] = target: Fuc(a1-2)Gal(b1-4)GlcNAc(b1-3)Gal(b1-4)GlcNAc
# Method in brief: as §1
# [7] = target: Fuc(a1-2)Gal(b1-4)GlcNAc(b1-3)Gal(b1-4)GlcNAc(b1-3)Gal(b1-4)GlcNAc
# Method in brief: as §1
# [8] = target: Fuc(a1-2)Gal(b1-4)[Fuc(a1-3)]GlcNAc
# Method in brief: as §1
# [9] = target: Fuc(a1-2)Gal(b1-4)[Fuc(a1-3)]GlcNAc(b1-3)Gal(b1-4)[Fuc(a1-3)]GlcNAc
# Method in brief: as §1
# [10] = target: Fuc(a1-2)Gal(b1-4)[Fuc(a1-3)]GlcNAc(b1-3)Gal(b1-4)[Fuc(a1-3)]GlcNAc(b1-3)Gal(b1-4)[Fuc(a1-3)]GlcNAc
# Method in brief: as §1
# Fuc(a1-2)GlcNAc = target: Fuc(a1-2)GlcNAc
# Method in brief: as §1
# Fuc(a1-2)[Gal(a1-3)]Gal = target: Fuc(a1-2)[Gal(a1-3)]Gal
# Method in brief: as §1
# [11] = target: Fuc(a1-2)[Gal(a1-3)]Gal(b1-3)GlcNAc
# Method in brief: as §1
# [12] = target: Fuc(a1-2)[Gal(a1-3)]Gal(b1-4)Glc
# Method in brief: as §1
# [13] = target: Fuc(a1-2)[Gal(a1-3)]Gal(b1-4)GlcNAc
# Method in brief: as §1
# [14] = target: Fuc(a1-2)[Gal(a1-3)]Gal(b1-4)[Fuc(a1-3)]GlcNAc
# Method in brief: as §1
# [15] = target: Fuc(a1-2)[Gal(a1-4)]Gal(b1-4)GlcNAc
# Method in brief: as §1
# [16] = target: Fuc(a1-2)[GalNAc(a1-3)]Gal
# Method in brief: as §1
# [17] = target: Fuc(a1-2)[GalNAc(a1-3)]Gal(b1-3)GlcNAc
# Method in brief: as §1
# [18] = target: Fuc(a1-2)[GalNAc(a1-3)]Gal(b1-4)Glc
# Method in brief: as §1
# [19] = target: Fuc(a1-2)[GalNAc(a1-3)]Gal(b1-4)GlcNAc
# Method in brief: as §1
# [20] = target: Fuc(a1-2)[GalNAc(a1-3)]Gal(b1-4)[Fuc(a1-3)]GlcNAc
# Method in brief: as §1
# [21] = target: Fuc(a1-2)[GalNAc(a1-4)]Gal(b1-4)GlcNAc
# Method in brief: as §1
# [22] = target: Fuc(a1-2)[GalNAc(b1-3)]Gal
# Method in brief: as §1
# Fuc(a1-3)GlcNAc = target: Fuc(a1-3)GlcNAc
# Method in brief: as §1
# [23] = target: Fuc(a1-3)[Gal(b1-4)]GlcNAc
# Method in brief: as §1
# [24] = target: Fuc(a1-3)[Gal(b1-4)]GlcNAc(b1-4)Gal(b1-4)[Fuc(a1-3)]GlcNAc
# Method in brief: as §1
# [25] = target: Fuc(a1-3)[Gal(b1-4)]GlcNAc(b1-4)Gal(b1-4)[Fuc(a1-3)]GlcNAc(b1-4)Gal(b1-4)[Fuc(a1-3)]GlcNAc
# Method in brief: as §1
# [26] = target: Fuc(a1-3)[Gal3S(b1-4)]GlcNAc
# Method in brief: as §1
# [27] = target: Fuc(a1-3)[GalNAc(b1-4)]GlcNAc
# Method in brief: as §1
# Fuc(a1-4)GlcNAc = target: Fuc(a1-4)GlcNAc
# Method in brief: as §1
# Fuc(b1-3)GlcNAc = target: Fuc(b1-3)GlcNAc
# Method in brief: as §1
# Gal(a1-2)Gal = target: Gal(a1-2)Gal
# Method in brief: as §1
# Gal(a1-3)Gal = target: Gal(a1-3)Gal
# Method in brief: as §1
# Gal(a1-3)Gal(b1-3)GlcNAc = target: Gal(a1-3)Gal(b1-3)GlcNAc
# Method in brief: as §1
# Gal(a1-3)Gal(b1-4)Glc = target: Gal(a1-3)Gal(b1-4)Glc
# Method in brief: as §1
# Gal(a1-3)Gal(b1-4)GlcNAc = target: Gal(a1-3)Gal(b1-4)GlcNAc
# Method in brief: as §1
# [28] = target: Gal(a1-3)Gal(b1-4)[Fuc(a1-3)]GlcNAc
# Method in brief: as §1
# Gal(a1-3)GalNAc = target: Gal(a1-3)GalNAc
# Method in brief: as §1
# [29] = target: Gal(a1-3)[Gal(a1-4)]Gal(b1-4)GlcNAc
# Method in brief: as §1
binder,measurement,setting,value
B1,glycan array binding signal (z-score),Fuc(a1-2)Gal,-0.338
same,glycan array binding signal (z-score),Fuc(a1-2)Gal(b1-3)GalNAc,-0.344
same,glycan array binding signal (z-score),[1],-0.341
same,glycan array binding signal (z-score),[2],-0.22
same,glycan array binding signal (z-score),[3],-0.197
same,glycan array binding signal (z-score),Fuc(a1-2)Gal(b1-3)GlcNAc,-0.319
same,glycan array binding signal (z-score),[4],-0.347
same,glycan array binding signal (z-score),[5],-0.364
same,glycan array binding signal (z-score),Fuc(a1-2)Gal(b1-4)Glc,0.36
same,glycan array binding signal (z-score),Fuc(a1-2)Gal(b1-4)GlcNAc,-0.322
same,glycan array binding signal (z-score),[6],-0.23
same,glycan array binding signal (z-score),[7],-0.327
same,glycan array binding signal (z-score),[8],-0.336
same,glycan array binding signal (z-score),[9],-0.338
same,glycan array binding signal (z-score),[10],-0.335
same,glycan array binding signal (z-score),Fuc(a1-2)GlcNAc,-0.38
same,glycan array binding signal (z-score),Fuc(a1-2)[Gal(a1-3)]Gal,-0.198
same,glycan array binding signal (z-score),[11],-0.391
same,glycan array binding signal (z-score),[12],-0.394
same,glycan array binding signal (z-score),[13],-0.267
same,glycan array binding signal (z-score),[14],-0.328
same,glycan array binding signal (z-score),[15],-0.127
same,glycan array binding signal (z-score),[16],-0.358
same,glycan array binding signal (z-score),[17],-0.157
same,glycan array binding signal (z-score),[18],-0.36
same,glycan array binding signal (z-score),[19],-0.206
same,glycan array binding signal (z-score),[20],-0.268
same,glycan array binding signal (z-score),[21],0.293
same,glycan array binding signal (z-score),[22],-0.394
same,glycan array binding signal (z-score),Fuc(a1-3)GlcNAc,-0.201
same,glycan array binding signal (z-score),[23],-0.39
same,glycan array binding signal (z-score),[24],-0.238
same,glycan array binding signal (z-score),[25],-0.262
same,glycan array binding signal (z-score),[26],-0.234
same,glycan array binding signal (z-score),[27],-0.301
same,glycan array binding signal (z-score),Fuc(a1-4)GlcNAc,-0.38
same,glycan array binding signal (z-score),Fuc(b1-3)GlcNAc,-0.373
same,glycan array binding signal (z-score),Gal(a1-2)Gal,-0.332
same,glycan array binding signal (z-score),Gal(a1-3)Gal,-0.383
same,glycan array binding signal (z-score),Gal(a1-3)Gal(b1-3)GlcNAc,-0.368
same,glycan array binding signal (z-score),Gal(a1-3)Gal(b1-4)Glc,-0.308
same,glycan array binding signal (z-score),Gal(a1-3)Gal(b1-4)GlcNAc,-0.33
same,glycan array binding signal (z-score),[28],-0.364
same,glycan array binding signal (z-score),Gal(a1-3)GalNAc,-0.39
same,glycan array binding signal (z-score),[29],-0.356
